The values that follow come from publication doi:10.1101/2020.01.04.893156 (bioRxiv, 2020).

This assay has as its target T1, phosphorylated Ric-8A(1-491) (rat, UniProt Q80ZG1 1-491, phosphoserine at 435, phosphothreonine at 440 (casein kinase II)).
T1 sequence (looked up): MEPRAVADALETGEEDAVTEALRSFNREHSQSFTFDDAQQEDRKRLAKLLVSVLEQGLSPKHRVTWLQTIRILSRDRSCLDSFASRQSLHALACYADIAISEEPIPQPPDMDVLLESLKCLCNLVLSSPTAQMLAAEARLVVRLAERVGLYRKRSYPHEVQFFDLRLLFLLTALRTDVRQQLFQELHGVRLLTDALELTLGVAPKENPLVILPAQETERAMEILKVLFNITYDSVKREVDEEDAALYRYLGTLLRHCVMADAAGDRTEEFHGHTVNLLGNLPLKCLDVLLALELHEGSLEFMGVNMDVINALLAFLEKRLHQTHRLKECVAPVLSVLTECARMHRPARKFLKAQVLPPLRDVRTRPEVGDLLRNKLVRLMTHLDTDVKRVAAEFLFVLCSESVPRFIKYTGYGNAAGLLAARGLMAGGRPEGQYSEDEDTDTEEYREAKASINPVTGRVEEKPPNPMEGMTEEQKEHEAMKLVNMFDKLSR
The assay can be described thus: cryo-EM structure.

B1: Δ31NGαi1 (N-terminal 31-residue truncation mutant of rat Gαi1) (domain or fragment)
chain: not shown
Regarding B1, the binding result is listed as “binds”.
